Laboratory results as given in paper PMC4336329 (PLoS ONE, 2015).
Out of some 310,000 compounds screened, about 14,000 (4.5%) showed an effect of 50% or more. The effect is printed as a negative number. Some of the results follow.

Biological target: human ether-à-go-go-related gene (hERG) potassium channel (human, UniProt Q12809)
Test: primary screen, population patch clamp on CHO cells stably expressing hERG
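Also: peak tail current of the secondary pulse compared with the same well before compound.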

Chain of human ether-à-go-go-related gene (hERG) potassium channel (Q12809 whole entry, looked up): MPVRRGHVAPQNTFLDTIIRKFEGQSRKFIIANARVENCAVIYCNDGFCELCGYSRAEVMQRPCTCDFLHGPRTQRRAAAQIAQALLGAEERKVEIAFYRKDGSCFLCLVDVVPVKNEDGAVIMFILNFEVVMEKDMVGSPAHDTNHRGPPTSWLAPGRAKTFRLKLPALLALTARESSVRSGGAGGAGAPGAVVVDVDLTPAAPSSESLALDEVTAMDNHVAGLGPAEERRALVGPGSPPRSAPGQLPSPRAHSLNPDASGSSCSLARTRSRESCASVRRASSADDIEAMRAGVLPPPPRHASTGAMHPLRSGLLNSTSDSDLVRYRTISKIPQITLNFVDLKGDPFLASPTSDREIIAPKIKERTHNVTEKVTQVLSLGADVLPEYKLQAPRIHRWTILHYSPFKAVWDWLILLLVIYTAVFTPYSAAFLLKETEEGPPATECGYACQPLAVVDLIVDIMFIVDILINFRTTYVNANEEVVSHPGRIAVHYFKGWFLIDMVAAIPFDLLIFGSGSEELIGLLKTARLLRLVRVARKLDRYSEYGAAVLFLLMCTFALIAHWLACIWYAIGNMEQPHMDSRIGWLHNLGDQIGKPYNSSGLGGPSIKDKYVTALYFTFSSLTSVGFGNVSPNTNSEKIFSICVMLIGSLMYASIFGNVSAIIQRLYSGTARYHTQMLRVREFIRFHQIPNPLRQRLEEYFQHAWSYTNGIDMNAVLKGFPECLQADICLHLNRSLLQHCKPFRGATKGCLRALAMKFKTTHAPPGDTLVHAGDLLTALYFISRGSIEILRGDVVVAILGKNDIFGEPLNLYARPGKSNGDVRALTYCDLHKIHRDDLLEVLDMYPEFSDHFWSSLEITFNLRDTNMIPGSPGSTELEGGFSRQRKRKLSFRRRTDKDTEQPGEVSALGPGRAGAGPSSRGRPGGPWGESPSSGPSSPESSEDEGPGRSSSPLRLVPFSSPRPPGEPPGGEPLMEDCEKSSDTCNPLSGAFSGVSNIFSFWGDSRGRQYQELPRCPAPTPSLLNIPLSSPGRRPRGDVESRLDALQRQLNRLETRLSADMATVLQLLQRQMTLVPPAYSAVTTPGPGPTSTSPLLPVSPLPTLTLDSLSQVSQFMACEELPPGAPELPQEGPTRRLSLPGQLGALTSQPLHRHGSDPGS

SMILES	hERG current change (%, negative = inhibition) at 10uM [%]
COc1ccc(-c2cc(-c3nnc(COC(=O)CC4CCCC4)o3)c3ccccc3n2)cc1OC	10.9
COc1ccc(NC2=C(Cl)C(=O)N(CCc3ccccc3)C2=O)c(OC)c1	8.55
O=C(c1cc(S(=O)(=O)N2CCCCC2)ccc1Cl)N1CCOCC1	12.7
Cc1ccc2oc(=O)n(CCOc3ccccc3)c2c1	6.35
C=CCN1C(=O)/C(=C/c2cc(C)n(-c3ccccn3)c2C)C(=O)NC1=S	-6.57
COc1cc2ncnc(NCc3ccc4c(c3)OCO4)c2cc1OC	-8.43
CC1C(=O)N2CCCc3cc(S(=O)(=O)N4CCN(c5ccc(F)cc5)CC4)cc1c32 (stereo not shown)	-50.3
C/C(=N\NC(=O)c1nnn(-c2nonc2N)c1-c1ccc(Cl)c(Cl)c1)c1ccncc1	16.4
C=CCN(C(=O)CNC(=O)c1ccco1)C(C(=O)NC1CCCCC1)c1ccccc1 (stereo not shown)	1.1
Cc1ccc(NC(=O)c2cc(S(=O)(=O)N3CCOCC3)ccc2F)c(C)c1	-10.9
COc1ccc(OCC(=O)Nc2ccc3c(c2)nc(CCNC(C)=O)n3C)cc1	13.1
O=C(CC1CCCCC1)Nc1nc2ccccc2s1	8.92
N#C/C(=C\c1ccc(N2CCCCC2)o1)C(=O)Nc1cccc(Br)c1	5.3
CC(=O)CCc1ccc(OCC(O)CNC2CCCc3ccccc32)cc1.O=C(O)C(=O)O (stereo not shown)	-49
CC(C)c1[nH]nc2c1C(c1cccc(OC(=O)N3CCOCC3)c1)C(C#N)=C(N)O2 (stereo not shown)	-4.01
COc1cccc2cc(C(=O)N3CCN(C/C=C/c4ccccc4)CC3)c(=O)oc12	-37.7
O=C(c1ccccc1)c1ccc2c(c1)OCCOCCOCCO2	-3.96
CCN1CCN(CC(=O)Nc2ccc(C)c(Br)c2)CC1.Cl	-31.6
Cc1ccc(CCNS(=O)(=O)c2ccc3c(c2)NC(=O)C(C)C(=O)N3)cc1 (stereo not shown)	22.7
O=C(Cn1nnc(-c2ccc(F)cc2)n1)OCC(=O)c1ccccc1	9.21
CCOC(=O)C1=C(COC(=O)C2CC(=O)N(c3ccccc3F)C2)NC(=O)NC1C (stereo not shown)	2.92
CCOc1ccc(-n2c(O)c(C=NCCCn3ccnc3)c(=O)[nH]c2=O)cc1	21.7

SMILES	hERG current change (%, negative = inhibition) at 10uM [%]
Cc1ccc(NC(=O)[C@H](C)NC(=O)C2CCN(C(=O)[C@H](CC(C)C)NC(=O)OC(C)(C)C)CC2)cc1	2.93
COC(=O)CN1C(=O)CC(C)(C)Sc2ccccc21	10.3
CN1CCN(Cc2nc3ccccc3n2C)CC1	-0.083
COc1cc2c(cc1NC(=O)/C=C/c1cc(OC)c(OC)c(OC)c1)oc1ccccc12	-5.06
CN(Cc1ccccc1)S(=O)(=O)c1ccc(N2CCOCC2)nc1	3.62
Cc1cccc(N2CCN(Cc3ccc4c(c3)OCO4)CC2)c1C	3.83
Cc1ccc(S(=O)(=O)N(CC(=O)Nc2cccc(N(C)S(C)(=O)=O)c2)c2ccc(Cl)c(Cl)c2)cc1	13
CC(=O)C1=C(O)C(=O)N(c2ccc(O)cc2)C1c1ccccc1F (stereo not shown)	18.8
COc1ccc(CC(=O)N2CC3(C)CC2CC(C)(C)C3)cc1 (stereo not shown)	-1.46
CCCOc1ccc(C(=O)c2nc3c(n2O)CCCCC3)cc1	-7.16
C=CCN(CCNP(=O)(OCC)OCC)CP(=O)(OCC)OCC	6.87
O=C(CN1CCCC1)N/N=C/c1c(O)ccc2ccccc12	-3.45
Cc1ccccc1N1CCN(C(=S)c2ccccc2)CC1	-0.633
O=S(=O)(O)c1cc2oc(-c3ccccc3)nc2c2ccccc12	27.9
Cc1ccccc1-c1nc(CS(=O)CC(=O)NCCN2CCN(Cc3ccccc3)CC2)c(C)o1 (stereo not shown)	-58.7
CC1(C)CC(=O)C(C=Nc2ccc3c(c2)OCO3)=C(O)C1	-10.2
COc1ccc(CN2CCN(CCCc3ccccc3)C(CCO)C2)cc1OC (stereo not shown)	-72.8
CCOC(=O)NC(Nc1cc(C)on1)(C(F)(F)F)C(F)(F)F	11.7
Cc1ccccc1NC(=O)CC1SC(=NC2CCCCC2)NC1=O (stereo not shown)	4.09
CCn1cc(C(=O)Nc2ncccc2O)c(=O)c2cc(F)c(N3CCN(C(=O)c4ccco4)CC3)cc21	1.98
CC(=O)N1c2ccc(S(=O)(=O)NCCC(=O)N(C)C3CCCCC3)cc2CC1C (stereo not shown)	-0.795
